# Data reported in the supplement of paper PMC3334620.
# In all, about 33,000 sequences were measured (“E-score (-0.5 to 0.5)”: median about -0.032, highest 2% from about 0.36 on). The list shows a part of the results.
# Molecular target: T1, Sko1 (UniProt Q02100)
# T1 sequence: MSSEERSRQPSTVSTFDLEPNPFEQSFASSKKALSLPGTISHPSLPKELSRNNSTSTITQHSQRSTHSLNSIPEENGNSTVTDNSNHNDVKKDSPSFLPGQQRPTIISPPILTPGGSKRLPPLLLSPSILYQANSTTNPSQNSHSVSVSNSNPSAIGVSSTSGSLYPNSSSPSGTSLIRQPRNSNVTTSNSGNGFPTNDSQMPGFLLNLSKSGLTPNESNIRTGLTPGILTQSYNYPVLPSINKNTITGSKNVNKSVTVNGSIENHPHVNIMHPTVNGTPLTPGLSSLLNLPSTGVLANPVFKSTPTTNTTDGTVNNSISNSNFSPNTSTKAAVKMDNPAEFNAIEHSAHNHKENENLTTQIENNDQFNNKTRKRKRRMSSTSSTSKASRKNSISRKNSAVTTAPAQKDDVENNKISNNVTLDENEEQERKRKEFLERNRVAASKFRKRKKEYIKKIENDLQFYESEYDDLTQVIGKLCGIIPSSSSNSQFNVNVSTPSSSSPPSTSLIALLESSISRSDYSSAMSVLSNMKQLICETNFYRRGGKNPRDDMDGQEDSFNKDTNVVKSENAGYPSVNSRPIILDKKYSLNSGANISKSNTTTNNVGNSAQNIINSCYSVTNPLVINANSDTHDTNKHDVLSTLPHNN
# Assay: PBM E-score (8-mer binding enrichment) (E-score (-0.5 to 0.5)); higher = stronger / more preferred TF binding; most listed sequences are background and not binding sites
# Settings: protein concentration: 200 nM; construct: GST-full length
# Procedure, shortened: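 GST-tagged yeast TFs (full-length or DNA-binding domain) were made by PURExpress in vitro transcription/translation and applied at about 100-200 nM to universal all-10-mer Agilent arrays. The arrays were made double-stranded by primer extension, on fresh or once-stripped slides. Bound protein was detected with fluorescent anti-GST, and scans were normalised with masliner. Each ungapped eight-base word, pooled with its reverse complement, received an E-score (modified Wilcoxon-Mann-Whitney statistic) from the Universal PBM Analysis Suite.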
row,Sequence,PBM E-score
1,CTAGTCAC,0.0572
2,CCGGGCTA,-0.366
3,CACAGGTG,-0.0389
4,CTGCCCAA,-0.169
5,GTTGACAA,0.00878
6,ATACGTGC,0.406
7,AACTACCC,-0.145
8,AAGGTAGA,0.0344
9,AGATTTAA,0.0862
10,CGTCCCAC,0.186
11,AATCGTAG,0.257
12,ACACGCGC,0.0966
13,CTAAGGCA,-0.0501
14,GAGTTGCA,-0.0549
15,CTCGAATA,0.0293
16,CCGCACAA,-0.203
17,AAAGAATT,0.138
18,ATGCACCG,-0.187
19,AAGTGGTC,-0.0401
20,CTGCCATC,-0.14
21,GAGGTACC,-0.217
22,ACCCGCTA,-0.176
23,CGACACCC,-0.0454
24,AGAAGTAA,0.179
25,ATTCTGTA,-0.0162

row,Sequence,PBM E-score
1,AAATTATG,0.253
2,CGCATCTA,0.182
3,CATGTCCC,-0.146
4,CCGTTAAG,-0.113
5,GATCAGCC,-0.292
6,TGCAATAA,0.119
7,CGGTAGAA,-0.302
8,ATTGACGG,0.0348
9,CGGATTGA,3e-05
10,AACGTGAC,0.277
11,AGTTTGGG,-0.0813
12,AGCGGATC,-0.206
13,AATCAGTG,-0.121
14,AATGATGC,0.35
15,AGCAAAAC,0.0756
16,GCCCTTAC,-0.103
17,ACCACCAG,-0.181
18,CTATAAGA,-0.0703
19,GCGGGCAC,-0.199
20,CAGGGGCC,-0.211
21,ACTCGAGA,-0.107
22,GTCATCGA,0.331
23,TCCGTCGA,-0.0164
24,CTCCTCAG,-0.318
25,TCGAAACA,0.191

row,Sequence,PBM E-score
1,CTTCCAGC,-0.253
2,TCCTGCGA,-0.00234
3,ATGCTTTA,0.16
4,GGCGCGCA,-0.0526
5,CGGAGGTA,-0.261
6,AGCTTTTC,0.0539
7,AGAGGTCG,-0.199
8,CTTGTAAC,0.0401
9,AGGTTACG,0.275
10,CTCGAGTA,0.0724
11,GTAAGCAA,0.0702
12,ACATTAGT,-0.102
13,CCGCAGTA,-0.299
14,TACGAGGA,0.0426
15,AATACTTA,0.178
16,ATACTTAA,0.211
17,TAATTCGA,0.198
18,CTTTTGGC,-0.00678
19,AATGCAAC,0.0487
20,CTGACATC,0.21
21,ATTTCAGC,-0.0364
22,CAGTTTAA,0.0363
23,ACCTGGGA,-0.12
24,CGGCAGTA,-0.303
25,AGGTAGAG,-0.12

row,Sequence,PBM E-score
1,ACAGCGAC,0.0149
2,ATTCCCGG,-0.0536
3,AAAAATAA,0.193
4,TTAAGAAA,0.113
5,AGAAAATA,0.157
6,CACGTGGG,0.281
7,CCCGGTCC,-0.35
8,GCTCAAGC,-0.242
9,GGCCCATA,-0.146
10,AAGCTTGC,0.0431
11,GGACGCTA,-0.14
12,CCGTAGAA,-0.14
13,ACCGCGAC,0.021
14,CTAGATAG,-0.196
15,ATACGGAA,0.141
16,ACCTGCCT,-0.183
17,CCGATCGA,0.0223
18,AGTCACGC,0.167
19,GATAGAAA,-0.0195
20,TCCCAGGA,-0.301
21,AAATCTTC,-0.025
22,GAATTCCA,-0.0319
23,AGAGAACC,-0.32
24,ACTTGGGC,-0.139
25,CCTAAGAG,-0.0999

row,Sequence,PBM E-score
1,TGGCCCCA,-0.186
2,AGAGAACA,0.105
3,ACATAGCC,-0.0347
4,CCCGCTGA,-0.178
5,ATTCCCGC,-0.0529
6,AGGAGCCG,-0.274
7,CCCTATTC,-0.349
8,AGGCAGAG,-0.161
9,ACTCCACC,-0.123
10,GGTGGTCA,-0.213
11,TGTGGAAA,0.128
12,ATCTTTTC,0.165
13,AACTATTC,0.133
14,CACCTCGC,-0.206
15,AGTTATTG,0.0629
16,CAAGCGTA,0.22
17,CTTAACAC,0.0806
18,CCCTGCAA,-0.0743
19,AAGCCCTA,-0.023
20,ACGGGAGT,-0.102
21,CACATTCC,-0.129
22,CCCATAGG,-0.202
23,CCTTGGCA,-0.234
24,GTATCAAA,0.162
25,ACGGTTGC,-0.0961

row,Sequence,PBM E-score
1,GTTATCGA,-0.0477
2,ATGCGCGC,0.0437
3,ACTTAAAA,0.241
4,CTGGCCAA,-0.0089
5,CGGCTATC,-0.218
6,AAGGGGCC,-0.214
7,AGTTACAG,-0.0199
8,ACACGGTC,-0.0712
9,CACGATAG,0.0168
10,CCAAATGA,0.187
11,CGAACGCC,-0.17
12,AGCGGAAT,0.0256
13,GATCATTA,0.211
14,AGCTGGGC,-0.246
15,GCAGTCAA,-0.262
16,AGATCGAC,0.0496
17,TCCACACA,0.0159
18,AAATTCGA,-0.0439
19,GGCATTGA,-0.104
20,GCCAAGGC,-0.393
21,CTAAAAAG,0.0165
22,CAGTGTCG,-0.0823
23,ATGCACTG,-0.0475
24,AATATTTA,0.325
25,ACCAAAGA,0.0963

row,Sequence,PBM E-score
1,TAGCAATA,0.165
2,ATTGGGAG,-0.154
3,CACTACTC,0.0536
4,AGAACAAT,0.191
5,CGTATAGC,0.234
6,GTCGTAAA,0.282
7,AAAGTGTG,0.0355
8,AAAACTCC,-0.208
9,CCAACACC,-0.273
10,ATCTTGCA,0.112
11,CCGGACAC,-0.217
12,GAAGCACC,-0.0674
13,CCGTGCAG,0.035
14,GACTACTC,0.0323
15,ATCGGATC,-0.00721
16,CAATCCAA,0.0526
17,AGGCGTTA,-0.209
18,ACGTGTAC,0.409
19,CTCGCCGA,-0.198
20,AGTATAAT,0.0736
21,TACTACCA,-0.173
22,CAAAGATA,0.139
